Target: human TNC A2 (human, UniProt P24821)
Test: SPR (ProteOn XPR36), TNCA2 on NLC chip, 1:1 interaction model

Kd: 0.052 nM
koff: 9.35e-05 s⁻¹
kon: 1.8e+06 M⁻¹ s⁻¹
B1: TNC A2-targeted 2B10-based IgG-IL-10M1 immunoconjugate (other)
heavy 1: QVQLVQSGAEVKKPGSSVKVSCKASGGTFSSYAISWVRQAPGQGLEWMGGIIPIFGTANYAQKFQGRVTITADKSTSTAYMELSSLRSEDTAVYYCARLYGYAYYGAFDYWGQGTTVTVSSASTKGPSVFPLAPSSKSTSGGTAALGCLVKDYFPEPVTVSWNSGALTSGVHTFPAVLQSSGLYSLSSVVTVPSSSLGTQTYICNVNHKPSNTKVDKKV[human IgG1 Fc with changes not given here]
heavy 2: QVQLVQSGAEVKKPGSSVKVSCKASGGTFSSYAISWVRQAPGQGLEWMGGIIPIFGTANYAQKFQGRVTITADKSTSTAYMELSSLRSEDTAVYYCARLYGYAYYGAFDYWGQGTTVTVSSASTKGPSVFPLAPSSKSTSGGTAALGCLVKDYFPEPVTVSWNSGALTSGVHTFPAVLQSSGLYSLSSVVTVPSSSLGTQTYICNVNHKPSNTKVDKKVEPKSCDKTHTCPPCPAPEAAGGPSVFLFPPKPKDTLMISRTPEVTCVVVDVSHEDPEVKFNWYVDGVEVHNAKTKPREEQYNSTYRVVSVLTVLHQDWLNGKEYKCKVSNKALGAPIEKTISKAKGQPREPQVCTLPPSRDELTKNQVSLSCAVKGFYPSDIAVEWESNGQPENNYKTTPPVLDSDGSFFLVSKLTVDKSRWQQGNVFSCSVMHEALHNHYTQKSLSLSPGGGGGSGGGGSGGGGSSPGQGTQSENSCTHFPGNLPNMLRDLRDAFSRVKTFFQMKDQLDNLLLKESLLEDFKGYLGCQALSEMIQFYLEEVMPQAENQDPDIKAHVNSLGENLKTLRLRLRRCHRFLPCENGGGSGGKSKAVEQVKNAFNKLQEKGIYKAMSEFDIFINYIEAYMTMKIRN
light: DIQMTQSPSSLSASVGDRVTITCRASQGIRNDLGWYQQKPGKAPKRLIYAASSLQSGVPSRFSGSGSGTEFTLTISSLQPEDFATYYCLQNGLQPATFGQGTKVEIKRTVAAPSVFIFPPSDEQLKSGTASVVCLLNNFYPREAKVQWKVDNALQSGNSQESVTEQDSKDSTYSLSSTLTLSKADYEKHKVYACEVTHQGLSSPVTKSFNRGEC

— US11130822B2 (ROCHE GLYCART AG, dated 2021)
